# Test results published in the supplement of paper PMC8728848.
# Some of the results follow.
# B1: ECA (Erythrina cristagalli), P83410 (protein)
# chain: VETISFSFSEFEPGNDNLTLQGAALITQSGVLQLTKINQNGMPAWDSTGRTLYTKPVHMWDSTTGTVASFETRFSFSIEQPYTRPLPADGLVFFMGPTKSKPAQGYGYLGVFNNSKQDNSYQTLAVEFDTFSNPWDPPQVPHIGIDVNSIRSIKTQPFQLDNGQVANVVIKYDAPSKILHVVLVYPSSGAIYTIAEIVDVKQVLPDWVDVGLSGATGAQRDAAETHDVYSWSFQASLPE
# What was measured:
# Test in all cases: glycan array binding signal (z-score within array); higher = stronger binding
# Details in all cases: glycan notation: IUPAC condensed, linker removed
# [1] = molecular target: Fuc(a1-2)Gal(b1-4)GlcNAc(b1-3)Gal(b1-4)GlcNAc(b1-2)Man(a1-3)[Fuc(a1-2)Gal(b1-4)GlcNAc(b1-3)Gal(b1-4)GlcNAc(b1-2)Man(a1-6)]Man(b1-4)GlcNAc(b1-4)GlcNAc
# Outline: (§1)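 Glycan array data came from 3228 arrays in the Consortium for Functional Glycomics database, and only arrays with an available protein sequence were kept. Glycan names were put into IUPAC-condensed notation, and columns mapping to the same glycan were averaged. The binding signal is a within-array Z-score, averaged across arrays of one protein sequence run at different concentrations or buffers and across linkers. A negative Z-score can be read as non-binding.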
# [2] = molecular target: Fuc(a1-2)Gal(b1-4)GlcNAc(b1-3)Gal(b1-4)GlcNAc(b1-3)Gal(b1-4)GlcNAc
# Outline: as §1
# [3] = molecular target: Fuc(a1-2)Gal(b1-4)GlcNAc(b1-3)GalNAc
# Outline: as §1
# [4] = molecular target: Fuc(a1-2)Gal(b1-4)GlcNAc(b1-3)[Fuc(a1-2)Gal(b1-4)GlcNAc(b1-6)]GalNAc
# Outline: as §1
# [5] = molecular target: Fuc(a1-2)Gal(b1-4)GlcNAc(b1-3)[Fuc(a1-3)[Gal(b1-4)]GlcNAc(b1-6)]Gal(b1-4)Glc
# Outline: as §1
# [6] = molecular target: Fuc(a1-2)Gal(b1-4)GlcNAc(b1-6)GalNAc
# Outline: as §1
# [7] = molecular target: Fuc(a1-2)Gal(b1-4)GlcNAc6S
# Outline: as §1
# [8] = molecular target: Fuc(a1-2)Gal(b1-4)[Fuc(a1-3)]GlcNAc
# Outline: as §1
# [9] = molecular target: Fuc(a1-2)Gal(b1-4)[Fuc(a1-3)]GlcNAc(b1-2)Man(a1-3)[Fuc(a1-2)Gal(b1-4)[Fuc(a1-3)]GlcNAc(b1-2)Man(a1-6)]Man(b1-4)GlcNAc(b1-4)[Fuc(a1-6)]GlcNAc
# Outline: as §1
# [10] = molecular target: Fuc(a1-2)Gal(b1-4)[Fuc(a1-3)]GlcNAc(b1-2)[Fuc(a1-2)Gal(b1-4)[Fuc(a1-3)]GlcNAc(b1-4)]Man(a1-3)[Fuc(a1-2)Gal(b1-4)[Fuc(a1-3)]GlcNAc(b1-2)Man(a1-6)]Man(b1-4)GlcNAc(b1-4)GlcNAc
# Outline: as §1
# [11] = molecular target: Fuc(a1-2)Gal(b1-4)[Fuc(a1-3)]GlcNAc(b1-3)Gal(b1-4)[Fuc(a1-3)]GlcNAc
# Outline: as §1
# [12] = molecular target: Fuc(a1-2)Gal(b1-4)[Fuc(a1-3)]GlcNAc(b1-3)Gal(b1-4)[Fuc(a1-3)]GlcNAc(b1-3)Gal(b1-4)[Fuc(a1-3)]GlcNAc
# Outline: as §1
# [13] = molecular target: Fuc(a1-2)Gal(b1-4)[Fuc(a1-3)]GlcNAc(b1-3)GalNAc
# Outline: as §1
# [14] = molecular target: Fuc(a1-2)Gal(b1-4)[Fuc(a1-3)]GlcNAc(b1-3)[Neu5Ac(a2-6)Gal(b1-4)GlcNAc(b1-6)]Gal(b1-4)Glc
# Outline: as §1
# [15] = molecular target: Fuc(a1-2)Gal3S(b1-4)GlcNAc
# Outline: as §1
# [16] = molecular target: Fuc(a1-2)Gal6S(b1-3)GlcNAc
# Outline: as §1
# [17] = molecular target: Fuc(a1-2)Gal6S(b1-3)GlcNAc6S
# Outline: as §1
# Fuc(a1-2)Gal6S(b1-4)Glc = molecular target: Fuc(a1-2)Gal6S(b1-4)Glc
# Outline: as §1
# [18] = molecular target: Fuc(a1-2)Gal6S(b1-4)Glc6S
# Outline: as §1
# Fuc(a1-2)GlcNAc = molecular target: Fuc(a1-2)GlcNAc
# Outline: as §1
# Fuc(a1-2)[Gal(a1-3)]Gal = molecular target: Fuc(a1-2)[Gal(a1-3)]Gal
# Outline: as §1
# [19] = molecular target: Fuc(a1-2)[Gal(a1-3)]Gal(b1-3)GalNAc
# Outline: as §1
# [20] = molecular target: Fuc(a1-2)[Gal(a1-3)]Gal(b1-3)GalNAc(b1-3)Gal(a1-4)Gal(b1-4)Glc
# Outline: as §1
# [21] = molecular target: Fuc(a1-2)[Gal(a1-3)]Gal(b1-3)GlcNAc
# Outline: as §1
# [22] = molecular target: Fuc(a1-2)[Gal(a1-3)]Gal(b1-3)GlcNAc(b1-2)Man(a1-3)[Fuc(a1-2)[Gal(a1-3)]Gal(b1-3)GlcNAc(b1-2)Man(a1-6)]Man(b1-4)GlcNAc(b1-4)GlcNAc
# Outline: as §1
# [23] = molecular target: Fuc(a1-2)[Gal(a1-3)]Gal(b1-3)GlcNAc(b1-2)Man(a1-3)[Fuc(a1-2)[Gal(a1-3)]Gal(b1-3)GlcNAc(b1-2)Man(a1-6)]Man(b1-4)GlcNAc(b1-4)[Fuc(a1-6)]GlcNAc
# Outline: as §1
# [24] = molecular target: Fuc(a1-2)[Gal(a1-3)]Gal(b1-3)GlcNAc(b1-3)GalNAc
# Outline: as §1
# [25] = molecular target: Fuc(a1-2)[Gal(a1-3)]Gal(b1-3)GlcNAc(b1-6)GalNAc
# Outline: as §1
# [26] = molecular target: Fuc(a1-2)[Gal(a1-3)]Gal(b1-4)Glc
# Outline: as §1
# [27] = molecular target: Fuc(a1-2)[Gal(a1-3)]Gal(b1-4)GlcNAc
# Outline: as §1
binder,measurement,setting,value
B1,glycan array binding signal (z-score),[1],-0.067
same,glycan array binding signal (z-score),[2],1.34
same,glycan array binding signal (z-score),[3],0.126
same,glycan array binding signal (z-score),[4],-0.153
same,glycan array binding signal (z-score),[5],-0.465
same,glycan array binding signal (z-score),[6],1.76
same,glycan array binding signal (z-score),[7],-0.491
same,glycan array binding signal (z-score),[8],-0.238
same,glycan array binding signal (z-score),[9],1.42
same,glycan array binding signal (z-score),[10],1
same,glycan array binding signal (z-score),[11],-0.325
same,glycan array binding signal (z-score),[12],-0.194
same,glycan array binding signal (z-score),[13],0.542
same,glycan array binding signal (z-score),[14],-0.142
same,glycan array binding signal (z-score),[15],0.094
same,glycan array binding signal (z-score),[16],1.14
same,glycan array binding signal (z-score),[17],0.696
same,glycan array binding signal (z-score),Fuc(a1-2)Gal6S(b1-4)Glc,-0.096
same,glycan array binding signal (z-score),[18],-0.123
same,glycan array binding signal (z-score),Fuc(a1-2)GlcNAc,-0.263
same,glycan array binding signal (z-score),Fuc(a1-2)[Gal(a1-3)]Gal,-0.15
same,glycan array binding signal (z-score),[19],-0.383
same,glycan array binding signal (z-score),[20],-0.212
same,glycan array binding signal (z-score),[21],0.236
same,glycan array binding signal (z-score),[22],-0.808
same,glycan array binding signal (z-score),[23],-0.1
same,glycan array binding signal (z-score),[24],-0.481
same,glycan array binding signal (z-score),[25],-0.385
same,glycan array binding signal (z-score),[26],-0.337
same,glycan array binding signal (z-score),[27],-0.298
